Drawing on the RNAGym collection of RNA variant scans (doi:10.7554/elife.90254), this text covers self-cleavage for 56 variants.

Read counts are not given, so values of variants with three or more changes are uncertain.

B1: LINE1-mini (parent)
chain: GGCAGAGCUCAACACAGCGUGGCAAAGUGGCUGUGGCUAGACUGCC

This data set covers variants of B1. The experiment in a line: self-cleavage, relative activity (ratio to wild type); higher = more cleavage; in vitro, sequencing; the parent is a self-cleaving ribozyme.
For GGCAUAGCUUAACACAGCGUGGCAAAGUGGCUUUGGCUAGACUGCC [G5U C10U G33U], the self-cleavage stood at 0.05. For GGCAUAGCUCAACACAGUUUGGCAAGGUGGCUUUGGCUAGACUGCC [G5U C18U G19U A26G G33U], the self-cleavage was 0.03. Regarding GGCAUAGCUCAACACAGCGUGGUAAAGUGGCUGUUGCUAGACUGCC [G5U C23U G35U], the self-cleavage came out at 0.07.

On to GGCAUAGCUCAACACAGCGUGGGAAAGUAGCUGUGUCUUGACUGCC [G5U C23G G29A G36U A39U], for which the self-cleavage worked out at 0.02. Then GGCAUAGCUCAACACAGCGUGGGAAAGUGGCUGUUGCUAGACUGCC [G5U C23G G35U], with 0.03; and GGCAUAGCUCAACAAAGCGUGGCAACGUGGUUGUGGCUAGAGUGCC [G5U C15A A26C C31U C42G], with 0.02; and GGCAUAGCUCAACACAGCGUGGCAAAGUGGUUGUUGCUAGACUGCC [G5U C31U G35U], with 0.03. In the case of GGCAUAGCUCAACACAGUGUCGCAGGGUCGCUGUGGCUAGACUGCC [G5U C18U G21C A25G A26G G29C] it was 0.02; in that of GGCAUAGCUCAACAAAGCGUGGCAAAGUGGCUGUGACUAGUCUGCC [G5U C15A G36A A41U], 0.07. Regarding GGCAUAGCUCAACAAUGCGUGGCAAAGUGGCUGUGUCUAGACUGCC [G5U C15A A16U G36U], the self-cleavage amounted to 0.04. Take GGCAUAGCUCAACAGAGCGUGGCAAAGUGGCCCUGGCUAGACUGCC [G5U C15G U32C G33C]: the self-cleavage amounted to 0.02.

On to GGCAUAGCUCAACAGAGCGUCGCAAAGUGGCCGUGGCGACUCUGCC [G5U C15G G21C U32C U38G G40C A41U], for which the self-cleavage stood at 0.01.

Consider GGCAUAGCUCAACAUAUCGUGGCAAAGUUGCUGUGGCUAGACUGCC [G5U C15U G17U G29U], for which the self-cleavage is 0.05. Regarding GGCAUAGCUCAAAACAGAGUGGGAAAGUGGCUGUGGCUAGACUGCC [G5U C13A C18A C23G], the self-cleavage was 0.15. With GGCAUAGCUCAACACAGCGUGGCAAAGUGGCUGUGGCUAGAAUGCU [G5U C42A C46U], the self-cleavage came out at 0.14.

As to GGCAUAGCUCAACAUAGCGUGGCAAAGUGGCUGUGGGUAGACUGCC [G5U C15U C37G], the self-cleavage is 0.05. Then GGCAUAGCUCAACAUAGCGUGGCAAAGUGGCUGUGGAUAGACUGCC [G5U C15U C37A], with 0.08; and GGCAUAGCUCAACAGAGCGUGGCAAGGUGGCUGUGGCUAGACUGCC [G5U C15G A26G], with 0.05; and GGCAUAACUCGACACAGCGUGGCAAAGCGGCGGUGGAUAGACUGCC [G5U G7A A11G U28C U32G C37A], with 0.01. With GGCAUAGCUCAACAAACCGUGGCAAAGUGACUGUGUCUAGACUUCC [G5U C15A G17C G30A G36U G44U], the self-cleavage came to 0.02. Turning to GGCAUAACUCAACACAGCGUGGUAAAGUGGCUGUGGCUAGACUGCU [G5U G7A C23U C46U], the self-cleavage amounted to 0.31. Then GGCAUAGCUCAACACAGCGUGGGAUAGUGGCUGUUGCUAGACUGCC [G5U C23G A25U G35U], with 0.22; and GGCAUAGCUCAACAUAGCGUGGCAAAGUGGCUGUGGGUAGACUGGC [G5U C15U C37G C45G], with 0.03; and GGCAUAGCUCAAAACAGCAUGGCAAAGUGGCUGCGGCUAGACUGCA [G5U C13A G19A U34C C46A], with 0.06. In the case of GGCAUAGCUCAACACAGCGUGGCAAAGUGGCUGUGGAUAGACUGCA [G5U C37A C46A] it was 0.03; in that of GGCAUAGCUCAACACAGCGUGGCAAAGUGGAUGUAGCUAGACUGCC [G5U C31A G35A], 0.03; in that of GGCAUAGCUUAACACAGCGAGGCAAAGUGGAUGUGGCUAGACUGCC [G5U C10U U20A C31A], 0.03.

Take GGCAUAGCUCAACACAGCGUGGCAAAGUGGCUGUGGAUAAACUGCC [G5U C37A G40A]: the self-cleavage is 0.23.

As to GGCAUAGCUUAACACAUCGUAGCAAAGUGGCUGUGGCUAGAGUGCC [G5U C10U G17U G21A C42G], the self-cleavage was found to be 0.02. Then GGCAUAACUCAACACCGCGUGGCAAAGUGGCUGUGGCUAGACUGCC [G5U G7A A16C], with 0.45.

As to GGCAUAGCUCAAACCAGCGUGGCAACGUGGCUGUGGCUAGACCGCC [G5U C13A A14C A26C U43C], the self-cleavage is 0.01. With GGCAUAACUCAACACAGUGUGGCAAAGUGGCUGUGGCUAGACUGCA [G5U G7A C18U C46A], the self-cleavage worked out at 0.16. Then GGCAUAGCUCAAAAUAGCGUGGCUAAGUGGCUGUGGCUAGACUGCC [G5U C13A C15U A24U], with 0.45. Consider GGCAUAGCUCAACAGAGCGUGGCAAAGUGGCUGUGGCUAGAGUGCC [G5U C15G C42G], for which the self-cleavage was found to be 0.04.

For the variant GGCAUAGCUCAAGACAGCGUGGCCCAGUUGCUGUUGCUAGACUGCC [G5U C13G A24C A25C G29U G35U], the self-cleavage amounted to 0.01. In the case of GGCAUAGCUCAACACAGAGUGGCAAAGUGGCUGUUACUAAACUGCC [G5U C18A G35U G36A G40A] it was 0.02; in that of GGCAUAGCUCAACACAGAGUGGCAAAGUGCCUGUGGCUAGACUGCC [G5U C18A G30C], 0.11. GGCAUAGCUCAAGACAGCGUGGCAAAGUGGCUGUGGAUAGACUACC [G5U C13G C37A G44A]: the self-cleavage stood at 0.04. Then GGCAUAGCUCAAGACAGCGGGACAAAGUGGCUGUGGCUAGACUGCC [G5U C13G U20G G22A], with 0.02; and GGCAUAGCUCAAGACAGCGUGGCAAAGUGGCUGUGGCUAGACUGAC [G5U C13G C45A], with 0.01; and GGCAUAGCUCAAUACAGCGUGGCAAAGUUGCUGUGGCUAGACUGCC [G5U C13U G29U], with 0.08. Regarding GGCAUAACUCAACACUCCGUGGCAAAGUGGCUGUGGCUAAACUGCC [G5U G7A A16U G17C G40A], the self-cleavage amounted to 0.12. As for GGCAUAGCUCAACACAGCGUGGCAAAGUGGCUGUGGGUAGACUACC [G5U C37G G44A], the self-cleavage is 0.08. For the variant GGCAUAGCUCAAAAAAGCGUGGCAAAGUGGCUGUGGCUAGACUGCC [G5U C13A C15A], the self-cleavage was determined as 0.61. In the case of GGCAUAGCUCAACAUAGCGUGGCAAAGUGUCUGUGGCUAGGCUGCC [G5U C15U G30U A41G] it was 0.2. Then GGCAUAGCUCAACACAGCGUGGUAAAGUGGCUGUGGCUAGAGUGAC [G5U C23U C42G C45A], with 0; and GGCAUAGCUUAACACAGCGUGGCAAAGUUGCUGUGGCUAGACUGCA [G5U C10U G29U C46A], with 0.04; and GGCAUAGCUCAACACAGCGUGGCAAAGUGGUUGUGGCUAGACUGCU [G5U C31U C46U], with 0.05. As for GGCAUAACUCAACACAGCGUGGCAUAGUGGUUGUGGCUAGACUGCC [G5U G7A A25U C31U], the self-cleavage amounted to 0.25. Then GGCAUAGCUCAAUACAGCGUGGCAAAGUAGGUGUGGCUAGACUGCC [G5U C13U G29A C31G], with 0.02; and GGCAUAGCUCAAGACAGAGUGGCAAAGUGGCUGUGGCUAGGCUGCC [G5U C13G C18A A41G], with 0.02. Turning to GGCAUAGCUCAACACAGCGUGGAAAAGUGGCUGUGGUUUGACUGCC [G5U C23A C37U A39U], the self-cleavage turned out to be 0. In the case of GGCAUAGCUCAACACAGCGUGGUAAAGUGGCUAUGGCUAUGCUGCC [G5U C23U G33A G40U A41G] it was 0.06; in that of GGCAUAGCUCAACAUAGCGUGGCAAAGUUGCUGUGGCUAGACAGAC [G5U C15U G29U U43A C45A], 0. In the case of GGCAUAGCUCAAAACAGCGUGGCAAAGUAGCUGUGGCUAGACUGCC [G5U C13A G29A] it was 0.1; in that of GGCAUAGCUCAACACAGCGUGGCAAAGUGGAUGUGGCCCGACUGCC [G5U C31A U38C A39C], 0.02.
